The values that follow come from the BET-seq Pho4 binding data (Le et al. 2018).

This is one part of the list. The energies were worked out here from pooled read counts, against the library average; single values are noisy.

The target in the test is T1, Pho4 (S. cerevisiae) (UniProt P07270).
T1 sequence: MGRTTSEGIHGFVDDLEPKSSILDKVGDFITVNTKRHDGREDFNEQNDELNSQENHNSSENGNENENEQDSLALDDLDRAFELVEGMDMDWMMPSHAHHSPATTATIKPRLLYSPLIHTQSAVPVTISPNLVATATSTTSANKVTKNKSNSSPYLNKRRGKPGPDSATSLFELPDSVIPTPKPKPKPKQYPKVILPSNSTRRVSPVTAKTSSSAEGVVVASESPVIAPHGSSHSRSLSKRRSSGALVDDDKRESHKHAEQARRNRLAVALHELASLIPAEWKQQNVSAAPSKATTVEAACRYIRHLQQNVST
The experiment in a line: relative binding free energy (BET-seq); higher = weaker binding. To be noted: reference: library average.
As for AGTAACACGTGTTAAT, the “relative binding free energy” value came out at 0.06 kcal/mol.
Consider GATTGCACGTGGCGTG, for which the “relative binding free energy” value is -0.04 kcal/mol.
On to AATAACACGTGAGTTT, for which the “relative binding free energy” value was found to be 0.31 kcal/mol.
Next, AACGGCACGTGGTTGT: -0.35 kcal/mol; TGTGTCACGTGGTAGA: 0.11 kcal/mol; TGTAACACGTGAGTGC: 0.21 kcal/mol.
Take GCAGGCACGTGCAGGG: the “relative binding free energy” value was -0.16 kcal/mol.
With GTAGGCACGTGGGGCC the figure was -0.23 kcal/mol; with GGCGCCACGTGGGTGG, -0.17 kcal/mol; with TAATGCACGTGGGTTC, -0.23 kcal/mol.
With TAGGTCACGTGGATAG, the “relative binding free energy” value is 0.17 kcal/mol.
CTTATCACGTGTAGAG: the “relative binding free energy” value was 0.13 kcal/mol.
Turning to AGGAGCACGTGTGTCA, the “relative binding free energy” value was -0.04 kcal/mol.
Next, ATATCCACGTGGGTTG: -0.13 kcal/mol; TGGTGCACGTGCTAGT: -0.02 kcal/mol.
With GTATTCACGTGTAAAT the figure was 0.36 kcal/mol; with ATTAGCACGTGCATTG, -0.09 kcal/mol; with TCAGGCACGTGGTGGT, -0.16 kcal/mol.
Next, GATATCACGTGTAGTG: 0.12 kcal/mol; AATAGCACGTGGTTAA: -0.13 kcal/mol.
In the case of TGTATCACGTGATAGG, the “relative binding free energy” value is 0.17 kcal/mol.
Next, AACTGCACGTGGGGTA: -0.32 kcal/mol; CTTTTCACGTGTTAAT: 0.21 kcal/mol; CTCGGCACGTGTTGGA: 0.05 kcal/mol.
Next, ATGTACACGTGTCGGC: 0.26 kcal/mol; GATGGCACGTGCGGGT: 0.03 kcal/mol; TTGTTCACGTGGCGGC: 0.29 kcal/mol.
Regarding TTTCTCACGTGCGGTT, the “relative binding free energy” value worked out at 0.21 kcal/mol.
With GAGGACACGTGATGAG the figure was 0.29 kcal/mol.
Turning to GAAGTCACGTGGGAAG, the “relative binding free energy” value stood at 0.27 kcal/mol.
As to AGTGACACGTGTGGCT, the “relative binding free energy” value is 0.09 kcal/mol.
In the case of TTTTTCACGTGACTAT, the “relative binding free energy” value came to 0.42 kcal/mol.
ATACTCACGTGGGTGT: the “relative binding free energy” value is 0.08 kcal/mol.
In the case of TGTTGCACGTGAGAAA, the “relative binding free energy” value was 0.17 kcal/mol.
As to TATAGCACGTGTGGGA, the “relative binding free energy” value is -0.08 kcal/mol.
With TACGGCACGTGGGGGA the figure was -0.08 kcal/mol; with TGCTGCACGTGGGGAG, -0.23 kcal/mol; with TGTATCACGTGTCTTA, 0.16 kcal/mol.
With AGTTACACGTGGTCGT the figure was 0.02 kcal/mol; with TGCAGCACGTGGTTTA, -0.13 kcal/mol; with TGGCTCACGTGTGGTT, 0.15 kcal/mol.
With GGTTACACGTGCAGGA the figure was 0.17 kcal/mol; with AATGGCACGTGTGTAA, -0.02 kcal/mol.
For the sequence TATCTCACGTGGGTGT, the “relative binding free energy” value was 0.12 kcal/mol.
Next, CATGGCACGTGGTCGG: -0.2 kcal/mol; TTTAACACGTGTGATA: -0.04 kcal/mol.
For the sequence AATTTCACGTGTGGAG, the “relative binding free energy” value is 0.31 kcal/mol.
Consider ATGTTCACGTGTTTAA, for which the “relative binding free energy” value turned out to be 0.25 kcal/mol.
For the sequence AAGTTCACGTGGGGAC, the “relative binding free energy” value turned out to be 0.13 kcal/mol.
As for GTGGGCACGTGAGCGC, the “relative binding free energy” value was 0.13 kcal/mol.
With GCGGTCACGTGGTAAG the figure was 0.22 kcal/mol; with AAGTTCACGTGCTGAG, 0.35 kcal/mol.
Next, ATTGTCACGTGGTATC: 0.02 kcal/mol.
For the sequence ATGTTCACGTGGCAGA, the “relative binding free energy” value worked out at 0.14 kcal/mol.
Next, TGTCTCACGTGTTGAT: 0.13 kcal/mol.
As for GGGGTCACGTGTACTA, the “relative binding free energy” value came out at 0.19 kcal/mol.
Next, GGGGGCACGTGTCAGT: -0.07 kcal/mol.
In the case of TTCGCCACGTGTGTGG, the “relative binding free energy” value came to 0.04 kcal/mol.
Next, TCGGGCACGTGGGAAT: -0.11 kcal/mol.
Next, ATTTGCACGTGGTGGA: -0.03 kcal/mol; TCGGACACGTGCTGGT: -0.08 kcal/mol; TATTTCACGTGAATTA: 0.44 kcal/mol.
As for GAAATCACGTGAGTTT, the “relative binding free energy” value amounted to 0.45 kcal/mol.
